{"source": "PubChem BioAssay (NCI)", "test_in_all_cases": "NCI-60 cell line screen, 48 h", "key": {"[1]": {"test_system": "OVCAR-5 ovarian"}, "[2]": {"test_system": "SF-539 CNS"}, "[3]": {"test_system": "MCF7 breast"}, "[4]": {"test_system": "NCI-H522 lung"}, "[5]": {"test_system": "NCI/ADR-RES ovarian"}, "[6]": {"test_system": "TK-10 renal"}, "[7]": {"test_system": "A498 renal"}, "[8]": {"test_system": "OVCAR-4 ovarian"}, "[9]": {"test_system": "T-47D breast"}, "[10]": {"test_system": "M14 melanoma"}, "[11]": {"test_system": "LOX IMVI melanoma"}, "[12]": {"test_system": "HS 578T breast"}, "[13]": {"test_system": "SK-MEL-28 melanoma"}, "[14]": {"test_system": "DU-145 prostate"}, "[15]": {"test_system": "SW-620 colon"}, "[16]": {"test_system": "HOP-92 NSCLC"}, "[17]": {"test_system": "SK-OV-3 ovarian"}, "[18]": {"test_system": "UACC-62 melanoma"}, "[19]": {"test_system": "CCRF-CEM leukemia"}, "[20]": {"test_system": "HCT-15 colon"}, "[21]": {"test_system": "MDA-MB-435"}, "[22]": {"test_system": "UO-31 renal"}, "[23]": {"test_system": "SR leukemia"}, "[24]": {"test_system": "SNB-75 CNS"}, "[25]": {"test_system": "MALME-3M melanoma"}, "[26]": {"test_system": "HL-60(TB) leukemia"}, "[27]": {"test_system": "BT-549 breast"}, "[28]": {"test_system": "MDA-MB-231 breast"}}, "note": "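Five concentrations, 48 hours, 96-well plates. GI50 marks 50% less growth.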 Some entries of the source have several records that differ or are many. They are shown here; other results are not. There may be further records. A record mostly stands for its own series of concentrations, not given here; a value can be the end of its range.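 TGI: total growth inhibition.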"}
{"smiles": "O=C(Nc1cccc(-n2ccc3c(NC(=O)c4ccccc4)nccc32)c1)c1ccc(Cl)c(C(F)(F)F)c1", "values": [{"measurement": "GI50", "setting": "[1]", "result": "> 100 µM [1 test] and 222 nM [mean of 2 tests]"}, {"measurement": "TGI", "setting": "[1]", "result": "> 100 µM [1 test] and 4.89 µM [mean of 2 tests]"}, {"measurement": "GI50", "setting": "[2]", "result": "14.9 µM [1 test] and 135 nM [mean of 2 tests]"}, {"measurement": "TGI", "setting": "[2]", "result": "> 100 µM [1 test] and 488 nM [mean of 2 tests]"}, {"measurement": "GI50", "setting": "[3]", "result": "2.92 µM [1 test] and 60.5 nM [mean of 2 tests]"}, {"measurement": "TGI", "setting": "[3]", "result": "20.4 µM [1 test] and 785 nM [mean of 2 tests]"}, {"measurement": "GI50", "setting": "[4]", "result": "5.77 µM [1 test] and 27.8 nM [mean of 2 tests]"}, {"measurement": "TGI", "setting": "[4]", "result": "38 µM [1 test] and 188 nM [mean of 2 tests]"}, {"measurement": "GI50", "setting": "[5]", "result": "9.03 µM [1 test] and 96.1 nM [mean of 2 tests]"}, {"measurement": "TGI", "setting": "[5]", "result": "41.7 µM [1 test] and 294 nM [mean of 2 tests]"}, {"measurement": "TGI", "setting": "[6]", "result": "> 100 µM [1 test] and 1.88 µM [mean of 2 tests]"}, {"measurement": "GI50", "setting": "[7]", "result": "32 µM [1 test] and 88.9 nM [mean of 2 tests]"}, {"measurement": "TGI", "setting": "[7]", "result": "> 100 µM [1 test] and 903 nM [mean of 2 tests]"}, {"measurement": "GI50", "setting": "[8]", "result": "14.6 µM [1 test] and 364 nM [mean of 2 tests]"}, {"measurement": "TGI", "setting": "[8]", "result": "45.7 µM [1 test] and 1.72 µM [mean of 2 tests]"}, {"measurement": "TGI", "setting": "[9]", "result": "> 100 µM [1 test] and 2.05 µM [mean of 2 tests]"}, {"measurement": "GI50", "setting": "[10]", "result": "10.6 µM [1 test] and 148 nM [mean of 2 tests]"}, {"measurement": "TGI", "setting": "[10]", "result": "> 100 µM [1 test] and 734 nM [mean of 2 tests]"}, {"measurement": "TGI", "setting": "[11]", "result": "13.9 µM [1 test] and 766 nM [mean of 2 tests]"}, {"measurement": "GI50", "setting": "[12]", "result": "39.5 µM [1 test] and 119 nM [mean of 2 tests]"}, {"measurement": "TGI", "setting": "[12]", "result": "> 100 µM [1 test] and 976 nM [mean of 2 tests]"}, {"measurement": "GI50", "setting": "[13]", "result": "17.5 µM [1 test] and 244 nM [mean of 2 tests]"}, {"measurement": "TGI", "setting": "[13]", "result": "> 100 µM [1 test] and 1.08 µM [mean of 2 tests]"}, {"measurement": "GI50", "setting": "[14]", "result": "12.1 µM [1 test] and 144 nM [mean of 2 tests]"}, {"measurement": "TGI", "setting": "[14]", "result": "> 100 µM [1 test] and 453 nM [mean of 2 tests]"}, {"measurement": "GI50", "setting": "[15]", "result": "3.46 µM [1 test] and 152 nM [mean of 2 tests]"}, {"measurement": "TGI", "setting": "[15]", "result": "30.8 µM [1 test] and 749 nM [mean of 2 tests]"}, {"measurement": "TGI", "setting": "[16]", "result": "> 100 µM [1 test] and 4.24 µM [mean of 2 tests]"}, {"measurement": "GI50", "setting": "[17]", "result": "157 nM and > 100 µM"}, {"measurement": "TGI", "setting": "[17]", "result": "5.7 µM and > 100 µM"}, {"measurement": "GI50", "setting": "[18]", "result": "5.29 µM [1 test] and 89.2 nM [mean of 2 tests]"}, {"measurement": "TGI", "setting": "[18]", "result": "> 100 µM [1 test] and 908 nM [mean of 2 tests]"}, {"measurement": "GI50", "setting": "[19]", "result": "137 nM and 5.3 µM"}, {"measurement": "TGI", "setting": "[19]", "result": "1.31 µM and 51.1 µM"}, {"measurement": "GI50", "setting": "[20]", "result": "485 nM [1 test] and 34.3 nM [mean of 2 tests]"}, {"measurement": "TGI", "setting": "[20]", "result": "47.3 µM [1 test] and 869 nM [mean of 2 tests]"}, {"measurement": "GI50", "setting": "[21]", "result": "4.52 µM [1 test] and 24.2 nM [mean of 2 tests]"}, {"measurement": "TGI", "setting": "[21]", "result": "51 µM [1 test] and 117 nM [mean of 2 tests]"}, {"measurement": "GI50", "setting": "[22]", "result": "25.8 µM [1 test] and 402 nM [mean of 2 tests]"}, {"measurement": "TGI", "setting": "[22]", "result": "> 100 µM [1 test] and 6.67 µM [mean of 2 tests]"}, {"measurement": "GI50", "setting": "[23]", "result": "1.14 µM [1 test] and 49.9 nM [mean of 2 tests]"}, {"measurement": "GI50", "setting": "[24]", "result": "153 nM and 34.5 µM"}, {"measurement": "TGI", "setting": "[24]", "result": "837 nM and > 100 µM"}, {"measurement": "GI50", "setting": "[25]", "result": "72.9 µM [1 test] and 285 nM [mean of 2 tests]"}, {"measurement": "TGI", "setting": "[25]", "result": "> 100 µM [1 test] and 1.61 µM [mean of 2 tests]"}, {"measurement": "GI50", "setting": "[26]", "result": "22.4 µM [1 test] and 163 nM [mean of 2 tests]"}, {"measurement": "TGI", "setting": "[26]", "result": "64.3 µM [1 test] and 1.33 µM [mean of 2 tests]"}, {"measurement": "GI50", "setting": "[27]", "result": "211 nM and 4.8 µM"}, {"measurement": "TGI", "setting": "[27]", "result": "948 nM and > 100 µM"}, {"measurement": "GI50", "setting": "[28]", "result": "29.2 µM [1 test] and 180 nM [mean of 2 tests]"}, {"measurement": "TGI", "setting": "[28]", "result": "> 100 µM [1 test] and 1.09 µM [mean of 2 tests]"}]}
